# Among all 2,000 compounds or so, about 110 (5.5%) showed an effect of 50% or more. Some of the results follow.
# Molecular target: Genome polyprotein (dengue virus type 2) (UniProt P29990)
# [1] = Thailand/16681/1984, Concentration 25.0 uM, Number of replicates 1.0
structure (smiles),measurement,setting,value
COc1cc(CS(=O)(=O)C2CCN(C(=O)OCc3ccccc3)CC2)nc(N2CCNCC2)n1,inhibition,"Thailand/16681/1984, Concentration 49.5 uM, Number of replicates 2.0, Standard deviation 0.29373022757389566 %",0.45%
same,inhibition,"Thailand/16681/1984, Concentration 99.01 uM, Number of replicates 2.0, Standard deviation 0.01950977617569285 %",1.39%
same,inhibition,"Thailand/16681/1984, Concentration 198.0 uM, Number of replicates 2.0, Standard deviation 0.5126730851747567 %",2.52%
Cc1cnccc1NC(=O)c1coc2c1C(=O)NCCC2,inhibition,"Thailand/16681/1984, Concentration 49.5 uM, Number of replicates 2.0, Standard deviation 0.3757002107865962 %",-3.99%
same,inhibition,"Thailand/16681/1984, Concentration 99.01 uM, Number of replicates 2.0, Standard deviation 5.049623529571674 %",-2.36%
same,inhibition,"Thailand/16681/1984, Concentration 198.0 uM, Number of replicates 2.0, Standard deviation 1.011909544309998 %",-1.68%
Cc1cc(CO)c2cccc(Cc3cccc(C(=O)N4C[C@H](O)C[C@H]4C(=O)O)c3)c2n1,inhibition,"Thailand/16681/1984, Concentration 49.95 uM, Number of replicates 2.0, Standard deviation 0.8573518667581825 %",-3.82%
same,inhibition,"Thailand/16681/1984, Concentration 99.9 uM, Number of replicates 2.0, Standard deviation 0.6640344089557785 %",-0.89%
COc1cc(C(=O)Nc2cnc3ccccc3c2)nc(N2CCNCC2)n1,inhibition,"Thailand/16681/1984, Concentration 49.5 uM, Number of replicates 2.0, Standard deviation 9.540542197549359 %",4.46%
same,inhibition,"Thailand/16681/1984, Concentration 99.01 uM, Number of replicates 2.0, Standard deviation 4.349736840709832 %",6.31%
same,inhibition,"Thailand/16681/1984, Concentration 198.0 uM, Number of replicates 2.0, Standard deviation 5.514135579540427 %",7.41%
CCn1ccnc(NC[C@H](c2ccccc2)c2c[nH]c3ccccc23)c1=O,inhibition,"Thailand/16681/1984, Concentration 49.5 uM, Number of replicates 2.0, Standard deviation 0.39000028877484233 %",0.466%
same,inhibition,"Thailand/16681/1984, Concentration 99.01 uM, Number of replicates 2.0, Standard deviation 0.5001349035049478 %",4.03%
same,inhibition,"Thailand/16681/1984, Concentration 198.0 uM, Number of replicates 2.0, Standard deviation 0.5006118372426971 %",7.21%
CC(C)Cn1cccc(C(=O)Nc2ccnc3ccccc23)c1=O,inhibition,"Thailand/16681/1984, Concentration 49.5 uM, Number of replicates 2.0, Standard deviation 3.05520009762039 %",20.5%
same,inhibition,"Thailand/16681/1984, Concentration 99.01 uM, Number of replicates 2.0, Standard deviation 21.78722513628885 %",17%
same,inhibition,"Thailand/16681/1984, Concentration 198.0 uM, Number of replicates 2.0, Standard deviation 20.398741213407295 %",7.74%
O=Cc1ccc(N2CCC(C(=O)NCc3ccc(Cl)c(C(F)(F)F)c3)CC2)cc1,inhibition,[1],12.4%
CC(C)(CO)NC(=O)c1cc(Cl)cc(NC(=O)c2cc(-c3ccc(Cl)cc3)n[nH]2)c1,inhibition,"Thailand/16681/1984, Concentration 49.5 uM, Number of replicates 2.0, Standard deviation 0.12694171370832513 %",1.06%
same,inhibition,"Thailand/16681/1984, Concentration 99.01 uM, Number of replicates 2.0, Standard deviation 0.3683389265193805 %",1.45%
same,inhibition,"Thailand/16681/1984, Concentration 198.0 uM, Number of replicates 2.0, Standard deviation 0.21850629000727306 %",2.52%
COCCCN1CCC(NC(=O)C2CCN(c3ccc(C=O)cc3)CC2)CC1,inhibition,[1],16.3%
Nc1ccc(Br)c2ncccc12,inhibition,"Thailand/16681/1984, Concentration 49.95 uM, Number of replicates 2.0, Standard deviation 5.94009658152584 %",-1.62%
same,inhibition,"Thailand/16681/1984, Concentration 99.9 uM, Number of replicates 2.0, Standard deviation 5.75336311473699 %",1.34%
CSCC[C@H](NC(=O)OC(C)(C)C)C(=O)N1CCC[C@H]1C(=O)NCc1ccncc1,inhibition,"Thailand/16681/1984, Concentration 49.5 uM, Number of replicates 2.0, Standard deviation 3.0161954863268012 %",-1.64%
same,inhibition,"Thailand/16681/1984, Concentration 99.01 uM, Number of replicates 2.0, Standard deviation 3.9521494343167394 %",-1.16%
same,inhibition,"Thailand/16681/1984, Concentration 198.0 uM, Number of replicates 2.0, Standard deviation 3.4421447504149048 %",-1.03%
Cc1cc(CO)c2cccc(NC(=O)c3cnn(Cc4c(C)noc4C)c3)c2n1,inhibition,"Thailand/16681/1984, Concentration 49.95 uM, Number of replicates 2.0, Standard deviation 0.8661234688702698 %",4.01%
same,inhibition,"Thailand/16681/1984, Concentration 99.9 uM, Number of replicates 2.0, Standard deviation 1.205952159714456 %",8.22%
COc1cc(CS(=O)(=O)[C@H]2CCOC2)nc(N2CCNCC2)n1,inhibition,"Thailand/16681/1984, Concentration 49.5 uM, Number of replicates 2.0, Standard deviation 1.1070979066439124 %",-1.03%
same,inhibition,"Thailand/16681/1984, Concentration 99.01 uM, Number of replicates 2.0, Standard deviation 1.1346713232438308 %",-1.02%
same,inhibition,"Thailand/16681/1984, Concentration 198.0 uM, Number of replicates 2.0, Standard deviation 0.23411375269961499 %",-0.488%
CC1(C)CCC(CN2CCN(C(=O)C3CCN(c4ccc(C=O)cc4)CC3)CC2)=C(c2ccc(Cl)cc2)C1,inhibition,[1],14.6%
CS(=O)(=O)N1CCC(C(=O)Nc2nc3c(F)cccc3s2)CC1,inhibition,"Thailand/16681/1984, Concentration 49.5 uM, Number of replicates 2.0, Standard deviation 0.96531236791799 %",0.796%
same,inhibition,"Thailand/16681/1984, Concentration 99.01 uM, Number of replicates 2.0, Standard deviation 0.9471689504241718 %",0.997%
same,inhibition,"Thailand/16681/1984, Concentration 198.0 uM, Number of replicates 2.0, Standard deviation 0.2746253667085591 %",0.83%
CC(C)(CO)NC(=O)c1cc(Cl)cc(NC(=O)c2cncc(N3CCOCC3)c2)c1,inhibition,"Thailand/16681/1984, Concentration 49.5 uM, Number of replicates 2.0, Standard deviation 0.4474173856773207 %",-0.376%
same,inhibition,"Thailand/16681/1984, Concentration 99.01 uM, Number of replicates 2.0, Standard deviation 1.505611595400152 %",1.35%
same,inhibition,"Thailand/16681/1984, Concentration 198.0 uM, Number of replicates 2.0, Standard deviation 2.954515575506412 %",3.92%
Cc1cc(CO)c2cccc(NC(=O)c3cc(C(=O)O)[nH]n3)c2n1,inhibition,"Thailand/16681/1984, Concentration 49.95 uM, Number of replicates 2.0, Standard deviation 1.2262200734011628 %",6.16%
same,inhibition,"Thailand/16681/1984, Concentration 99.9 uM, Number of replicates 2.0, Standard deviation 1.3755281502367038 %",12.6%
Cc1cc(CO)c2cccc(Cc3cccc(C(=O)N4CCO[C@@H](CN)C4)c3)c2n1,inhibition,"Thailand/16681/1984, Concentration 49.95 uM, Number of replicates 2.0, Standard deviation 1.226020128751827 %",-8%
same,inhibition,"Thailand/16681/1984, Concentration 99.9 uM, Number of replicates 2.0, Standard deviation 0.7100280635505346 %",4.81%
C[C@H]1COCCN1C(=O)c1cc(Cl)ccc1NS(=O)(=O)c1ccc(Oc2ccccc2Cl)cc1,inhibition,"Thailand/16681/1984, Concentration 49.5 uM, Number of replicates 2.0, Standard deviation 1.11087224122176 %",42.6%
same,inhibition,"Thailand/16681/1984, Concentration 99.01 uM, Number of replicates 2.0, Standard deviation 0.41977451897359047 %",79.8%
same,inhibition,"Thailand/16681/1984, Concentration 198.0 uM, Number of replicates 2.0, Standard deviation 0.050716482924917095 %",92.9%
O=Cc1ccc(N2CCC(C(=O)N(Cc3ccccc3)[C@@H](CO)c3ccccc3)CC2)cc1,inhibition,[1],14.2%
Nc1ccnc2c(OC(F)(F)F)cccc12,inhibition,"Thailand/16681/1984, Concentration 49.95 uM, Number of replicates 2.0, Standard deviation 5.899788515721779 %",-6.29%
same,inhibition,"Thailand/16681/1984, Concentration 99.9 uM, Number of replicates 2.0, Standard deviation 6.266674134610807 %",-5.78%
O=Cc1ccc(N2CCC(C(=O)N[C@H]3CCc4ccccc4NC3=O)CC2)cc1,inhibition,[1],15.2%
COc1cc(COc2ccccc2CO)nc(N2CCNCC2)n1,inhibition,"Thailand/16681/1984, Concentration 49.5 uM, Number of replicates 2.0, Standard deviation 20.33636893523299 %",3.51%
same,inhibition,"Thailand/16681/1984, Concentration 99.01 uM, Number of replicates 2.0, Standard deviation 0.5398033487360073 %",-7.68%
same,inhibition,"Thailand/16681/1984, Concentration 198.0 uM, Number of replicates 2.0, Standard deviation 3.401504567444578 %",-5.09%
c1ccc2c(CN3CCC(c4c[nH]c5cccnc45)CC3)n[nH]c2c1,inhibition,"Thailand/16681/1984, Concentration 49.5 uM, Number of replicates 2.0, Standard deviation 0.8795107409501791 %",2.18%
same,inhibition,"Thailand/16681/1984, Concentration 99.01 uM, Number of replicates 2.0, Standard deviation 0.8626664157680123 %",3.05%
same,inhibition,"Thailand/16681/1984, Concentration 198.0 uM, Number of replicates 2.0, Standard deviation 1.2603111418750788 %",5.34%
O=Cc1ccc(N2CCC(C(=O)N3CCN(Cc4cccc5ccccc45)CC3)CC2)cc1,inhibition,[1],10.2%
